From the supplement of paper PMC3334620
In all, about 33,000 sequences were measured (“E-score (-0.5 to 0.5)”: median about -0.035, highest 2% from about 0.35 on). The list shows a part of the results.

Each sequence was assayed against T1, Pdr3 (UniProt P33200) (assay: PBM E-score (8-mer binding enrichment) (E-score (-0.5 to 0.5)); higher = stronger / more preferred TF binding; most listed sequences are background and not binding sites). Settings: protein concentration: 200 nM; construct: GST-full length.
T1 sequence: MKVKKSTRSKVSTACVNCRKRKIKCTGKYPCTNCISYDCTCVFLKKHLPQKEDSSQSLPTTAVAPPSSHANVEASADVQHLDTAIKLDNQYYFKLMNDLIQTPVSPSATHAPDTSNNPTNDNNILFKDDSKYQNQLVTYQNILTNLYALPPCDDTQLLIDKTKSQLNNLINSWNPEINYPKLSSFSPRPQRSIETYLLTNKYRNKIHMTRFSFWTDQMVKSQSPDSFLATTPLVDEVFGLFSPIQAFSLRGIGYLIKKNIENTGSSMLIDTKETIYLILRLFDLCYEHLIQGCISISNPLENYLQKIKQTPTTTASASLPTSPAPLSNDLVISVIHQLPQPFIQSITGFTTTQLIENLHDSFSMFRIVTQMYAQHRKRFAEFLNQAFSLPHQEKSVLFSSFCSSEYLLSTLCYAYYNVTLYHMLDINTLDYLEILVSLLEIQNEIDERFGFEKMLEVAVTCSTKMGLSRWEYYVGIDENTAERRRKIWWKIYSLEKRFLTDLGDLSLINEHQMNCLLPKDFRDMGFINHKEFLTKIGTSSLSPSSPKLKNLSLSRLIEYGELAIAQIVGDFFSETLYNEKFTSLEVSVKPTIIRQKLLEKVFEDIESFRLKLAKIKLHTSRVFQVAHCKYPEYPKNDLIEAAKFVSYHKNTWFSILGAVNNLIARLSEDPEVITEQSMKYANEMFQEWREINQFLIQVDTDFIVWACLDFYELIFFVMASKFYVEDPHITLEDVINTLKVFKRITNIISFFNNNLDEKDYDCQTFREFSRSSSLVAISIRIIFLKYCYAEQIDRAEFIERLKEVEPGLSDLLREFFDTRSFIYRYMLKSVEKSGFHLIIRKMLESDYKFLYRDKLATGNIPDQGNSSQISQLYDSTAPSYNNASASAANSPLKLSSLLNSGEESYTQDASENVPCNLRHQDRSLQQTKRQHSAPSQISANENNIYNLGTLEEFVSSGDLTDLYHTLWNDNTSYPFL
Procedure: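 Universal 'all 10-mer' protein binding microarrays (Agilent AMADID 015681) probed with GST-tagged S. cerevisiae TFs (full-length or DBD) made by in vitro transcription/translation (PURExpress), about 100-200 nM. Bound TF was detected with fluorescent anti-GST. Each ungapped 8-mer (which stands for itself and its reverse complement) is scored by the PBM enrichment score (E-score), a modified Wilcoxon-Mann-Whitney statistic from -0.5 to +0.5, computed with the Universal PBM Analysis Suite. Scale: above 0.35 generally sequence-specific binding.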

Sequence	PBM E-score
CCACCTGC	0.0368
CCTTTCTC	-0.224
CGTACCGA	0.0195
TAGGTCAA	-0.167
CGTAATAG	-0.0757
ATAGTCTA	-0.226
TCCGTCCA	0.324
CCTAATTA	-0.0268
CCCCCATC	-0.128
GTCCTTAA	-0.107
AATCCGGC	0.302
CTCATTTC	-0.0257
CGTGAACA	0.149
AATTAGGC	0.0727
ATATGTGC	0.04
ATTTGCCC	0.167
ACTGGTAC	0.0483
CGTCATGA	0.0709
ATACCGAG	0.0196
CATAGAGG	-0.176
GCGGGTAA	0.104
AGCATTAT	-0.116
GGCCGTAC	0.16
ACGAGGTC	-0.145
ACCCGAAA	0.155

Sequence	PBM E-score
GGGTATTA	0.187
GGCCTTGA	0.0147
TCTTTCAA	-0.142
CTTTGACC	-0.018
ACGTACCA	-0.274
AATCTCTC	-0.0116
GCATCGGA	0.298
CGGATTCA	0.179
GCTGAGGA	-0.132
ACGGTTAG	-0.148
TAACAGCA	0.0507
AATCCGAG	0.216
AGGAATGC	-0.0575
AACAGCAC	0.0734
ATAGCAGC	-0.138
AAATAAGT	-0.239
ACCCTAGC	-0.0889
ATACATAC	-0.0839
GTAGTGGA	-0.0159
ACCACTCG	0.0931
CCCTCCTC	-0.255
AGTCTTTG	-0.326
CCCAGTGC	0.0503
GATCGAAC	-0.0649
CAAGTTTA	-0.122

Sequence	PBM E-score
GCGGTTAC	0.0864
GTTTAGTA	-0.125
AAGCTCTG	-0.25
CTAAGCAA	-0.345
ACGAATTG	-0.132
GTTTTGCA	-0.113
GAGCTTCA	-0.0353
AGTTTCTG	-0.0357
AGCTCTCA	0.152
CGAACGAA	0.0784
AAGACATT	-0.0843
GATCGGTA	0.146
ACGATCTG	-0.213
AGCAGGGC	-0.0274
GCACCGCC	0.108
GCATGAAA	-0.13
CGCCCTGA	0.0732
CTGGTATC	-0.0675
GAGCTCCA	0.0677
ATAATTAA	0.16
AGCATCAC	-0.186
ACAAGTGT	-0.124
ACATGGAG	-0.133
CTCAGGAC	-0.064
AACTACAT	-0.104

Sequence	PBM E-score
ACTTCTAT	-0.19
CCTCCAGG	-0.269
ATGCACGA	-0.118
CACAAACC	-0.16
GCCAAAAA	0.0135
ATAAACAC	-0.122
CGCCGATC	0.206
TGGGACAA	-0.0135
ACGAACAG	0.0627
ACATTCCT	-0.0606
CATCTCTA	-0.165
AAGAACCG	0.105
GACCGCAA	0.155
GCGGTTCA	0.0936
GCAACCTA	-0.18
CCCCCAAG	-0.203
AGCCGAAC	0.0822
CCAGCACG	0.0341
ACCTGTCG	-0.0352
CGTCGAAG	-0.0857
CGTCCATC	0.153
CGAAGATC	-0.147
AGTGGTAA	-0.155
ATTGAGAA	-0.0251
ACCGTCGA	-0.129

Sequence	PBM E-score
GGCGTAAA	-0.0237
TGGGCCCA	0.176
TAACCAAA	-0.0915
AAAAGGCT	-0.147
ACTAGGTA	-0.0552
CCGACATA	0.131
TGACTAAA	-0.156
CTAAATAC	0.0285
CTTGATGA	0.0114
CAGCCACG	0.145
ACAAGGCA	-0.186
ACTACCTG	-0.0227
GAGTGGCA	-0.0517
AGTCTCAA	-0.124
GTACACAC	0.0147
AGAAATCC	0.0945
AGGGATTA	-0.132
AATCCGTC	0.314
CGAAGAAG	-0.0495
GAACGGGA	0.245
ACCCAAGC	-0.142
CCTGAGCA	-0.0984
ACTACCAC	-0.132
GTGGCGGA	0.271
CCTTGGAA	-0.0209

Sequence	PBM E-score
AGGATACA	-0.187
AAACTCTT	-0.264
GACAAGGA	-0.0759
CTAGTGCC	-0.109
ACACCGCG	0.261
CCTGTGAG	-0.131
GAACCGGC	0.247
CCTTATCA	-0.143
ACATTCTC	-0.143
ACCCAGAC	0.0736
CGTGCGGA	0.177
AATCCGTG	0.237
CAGGAGAA	0.036
GGTACACA	-0.0852
CACAGATG	-0.238
CTAGGTTC	0.154
CAGGGCAG	-0.182
AGTATTCG	0.0375
CAAAGTTC	0.12
CTTATTAA	0.0464
CGGCGGCC	0.144
TACTAACA	-0.00381
CATTGTGC	-0.0434
GCCCATCC	0.0505
AATCGGCT	0.243

Sequence	PBM E-score
AAACATCG	-0.0752
CATAAAAA	-0.121
CCTAAATC	0.0907
GGATTCAA	-0.075
CAGCATAA	-0.0299
ACATTGCT	-0.252
CGGTCCTA	-0.122
TGGGGAAA	0.132
AATTCTAA	-0.0663
CTTGTTGA	-0.0347
AGTAGACT	-0.231
GAATACTA	0.183
ATAGGTTA	-0.175
GACGTTCC	0.185
TAGCCACA	-0.221
TCTTCCAA	0.00234
GACGAGGC	-0.0348
AACACCTT	-0.0602
CTACCTTA	-0.0625
TACAGGAA	0.0679
GAGTTCTA	-0.129
ATGATTCG	0.127
